The supplement of paper PMC8728848
The list shows a part of the results.

Assays:
Assay in all cases: glycan array binding signal (z-score within array); higher = stronger binding
Conditions in all cases: glycan notation: IUPAC condensed, linker removed
[1] = molecular target: Gal(b1-3)GlcNAc(b1-2)Man(a1-3)[Gal(b1-3)GlcNAc(b1-2)Man(a1-6)]Man(b1-4)GlcNAc(b1-4)GlcNAc
How it was run: (§1)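 Columns mapping to the same glycan were averaged after glycan names were converted to IUPAC-condensed notation. The data come from 3228 arrays in the Consortium for Functional Glycomics database, limited to those with an available protein sequence. Binding is reported as a within-array Z-score averaged across arrays of one protein sequence and across linkers.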

[2] = molecular target: Gal(b1-3)GlcNAc(b1-2)Man(a1-3)[Gal(b1-3)GlcNAc(b1-2)Man(a1-6)]Man(b1-4)GlcNAc(b1-4)[Fuc(a1-6)]GlcNAc
How it was run: as §1

[3] = molecular target: Gal(b1-3)GlcNAc(b1-2)Man(a1-3)[GlcNAc(b1-4)][Gal(b1-3)GlcNAc(b1-2)Man(a1-6)]Man(b1-4)GlcNAc(b1-4)GlcNAc
How it was run: as §1

[4] = molecular target: Gal(b1-3)GlcNAc(b1-2)[Gal(b1-3)GlcNAc(b1-6)]Man(a1-6)[Gal(b1-3)GlcNAc(b1-2)Man(a1-3)]Man(b1-4)GlcNAc(b1-4)GlcNAc
How it was run: as §1

[5] = molecular target: Gal(b1-3)GlcNAc(b1-3)Gal(b1-3)GlcNAc
How it was run: as §1

[6] = molecular target: Gal(b1-3)GlcNAc(b1-3)Gal(b1-4)Glc
How it was run: as §1

[7] = molecular target: Gal(b1-3)GlcNAc(b1-3)Gal(b1-4)GlcNAc
How it was run: as §1

[8] = molecular target: Gal(b1-3)GlcNAc(b1-3)Gal(b1-4)GlcNAc(b1-2)Man(a1-3)[Gal(b1-3)GlcNAc(b1-3)Gal(b1-4)GlcNAc(b1-2)Man(a1-6)]Man(b1-4)GlcNAc(b1-4)GlcNAc
How it was run: as §1

[9] = molecular target: Gal(b1-3)GlcNAc(b1-3)Gal(b1-4)GlcNAc(b1-2)[Gal(b1-3)GlcNAc(b1-3)Gal(b1-4)GlcNAc(b1-6)]Man(a1-6)[Gal(b1-3)GlcNAc(b1-3)Gal(b1-4)GlcNAc(b1-2)Man(a1-3)]Man(b1-4)GlcNAc(b1-4)[Fuc(a1-6)]GlcNAc
How it was run: as §1

[10] = molecular target: Gal(b1-3)GlcNAc(b1-3)Gal(b1-4)GlcNAc(b1-3)Gal(b1-4)GlcNAc(b1-2)[Gal(b1-3)GlcNAc(b1-3)Gal(b1-4)GlcNAc(b1-3)Gal(b1-4)GlcNAc(b1-6)]Man(a1-6)[Gal(b1-3)GlcNAc(b1-3)Gal(b1-4)GlcNAc(b1-3)Gal(b1-4)GlcNAc(b1-2)Man(a1-3)]Man(b1-4)GlcNAc(b1-4)[Fuc(a1-6)]GlcNAc
How it was run: as §1

[11] = molecular target: Gal(b1-3)GlcNAc(b1-3)Gal(b1-4)GlcNAc(b1-6)[Gal(b1-3)GlcNAc(b1-3)]Gal(b1-4)Glc
How it was run: as §1

[12] = molecular target: Gal(b1-3)GlcNAc(b1-3)Gal(b1-4)[Fuc(a1-3)]GlcNAc
How it was run: as §1

[13] = molecular target: Gal(b1-3)GlcNAc(b1-3)Gal(b1-4)[Fuc(a1-3)]GlcNAc(b1-6)[Gal(b1-3)GlcNAc(b1-3)]Gal(b1-4)Glc
How it was run: as §1

[14] = molecular target: Gal(b1-3)GlcNAc(b1-3)GalNAc
How it was run: as §1

[15] = molecular target: Gal(b1-3)GlcNAc(b1-6)Gal(b1-4)GlcNAc
How it was run: as §1

[16] = molecular target: Gal(b1-3)GlcNAc(b1-6)GalNAc
How it was run: as §1

[17] = molecular target: Gal(b1-3)GlcNAc(b1-6)[Gal(b1-3)]GalNAc
How it was run: as §1

Gal(b1-3)GlcNAc6S = molecular target: Gal(b1-3)GlcNAc6S
How it was run: as §1

[18] = molecular target: Gal(b1-3)[Fuc(a1-4)]GlcNAc
How it was run: as §1

[19] = molecular target: Gal(b1-3)[Fuc(a1-4)]GlcNAc(b1-2)Man
How it was run: as §1

[20] = molecular target: Gal(b1-3)[Fuc(a1-4)]GlcNAc(b1-2)Man(a1-3)[Gal(b1-3)[Fuc(a1-4)]GlcNAc(b1-2)Man(a1-6)]Man(b1-4)GlcNAc(b1-4)[Fuc(a1-6)]GlcNAc
How it was run: as §1

[21] = molecular target: Gal(b1-3)[Fuc(a1-4)]GlcNAc(b1-3)Gal(b1-3)[Fuc(a1-4)]GlcNAc
How it was run: as §1

[22] = molecular target: Gal(b1-3)[Fuc(a1-4)]GlcNAc(b1-3)Gal(b1-4)[Fuc(a1-3)]GlcNAc
How it was run: as §1

[23] = molecular target: Gal(b1-3)[Fuc(a1-4)]GlcNAc(b1-6)GalNAc
How it was run: as §1

[24] = molecular target: Gal(b1-3)[GlcNAc(b1-6)]GalNAc
How it was run: as §1

[25] = molecular target: Gal(b1-3)[Neu5Ac(a2-6)]GalNAc
How it was run: as §1

[26] = molecular target: Gal(b1-3)[Neu5Ac(a2-6)]GlcNAc(b1-4)Gal(b1-4)Glc
How it was run: as §1

[27] = molecular target: Gal(b1-3)[Neu5Ac(b2-6)]GalNAc
How it was run: as §1

Gal(b1-4)Gal = molecular target: Gal(b1-4)Gal
How it was run: as §1

[28] = molecular target: Gal(b1-4)GalNAc(a1-3)[Fuc(a1-2)]Gal(b1-4)GlcNAc
How it was run: as §1

[29] = molecular target: Gal(b1-4)GalNAc(b1-3)[Fuc(a1-2)]Gal(b1-4)GlcNAc
How it was run: as §1

Gal(b1-4)Glc = molecular target: Gal(b1-4)Glc
How it was run: as §1

Gal(b1-4)Glc6S = molecular target: Gal(b1-4)Glc6S
How it was run: as §1

Gal(b1-4)GlcNAc = molecular target: Gal(b1-4)GlcNAc
How it was run: as §1

[30] = molecular target: Gal(b1-4)GlcNAc(a1-6)Gal(b1-4)GlcNAc
How it was run: as §1

Gal(b1-4)GlcNAc(b1-2)Man = molecular target: Gal(b1-4)GlcNAc(b1-2)Man
How it was run: as §1

[31] = molecular target: Gal(b1-4)GlcNAc(b1-2)Man(a1-3)Man(b1-4)GlcNAc(b1-4)GlcNAc
How it was run: as §1

B1: MGL (Homo sapiens), Q8IUN9 (protein)
chain: MTRTYENFQYLENKVKVQGFKNGPLPLQSLLQRLCSGPCHLLLSLGLGLLLLVIICVVGFQNSKFQRDLVTLRTDFSNFTSNTVAEIQALTSQGSSLEETIASLKAEVEGFKQERQAGVSELQEHTTQKAHLGHCPHCPSVCVPVHSEMLLRVQQLVQDLKKLTCQVATLNNNASTEGTCCPVNWVEHQDSCYWFSHSGMSWAEAEKYCQLKNAHLVVINSREEQNFVQKYLGSAYTWMGLSDPEGAWKWVDGTDYATGFQNWKPGQPDDWQGHGLGGGEDCAHFHPDGRWNDDVCQRPYHWVCEAGLGQTSQESH
glycan array binding signal (z-score) [1]: -0.229 | glycan array binding signal (z-score) [2]: -0.246 | glycan array binding signal (z-score) [3]: -0.245 | glycan array binding signal (z-score) [4]: -0.266 | glycan array binding signal (z-score) [5]: -0.248 | glycan array binding signal (z-score) [6]: -0.247 | glycan array binding signal (z-score) [7]: -0.268 | glycan array binding signal (z-score) [8]: -0.236 | glycan array binding signal (z-score) [9]: -0.049 | glycan array binding signal (z-score) [10]: -0.152 | glycan array binding signal (z-score) [11]: -0.24 | glycan array binding signal (z-score) [12]: -0.246 | glycan array binding signal (z-score) [13]: -0.25 | glycan array binding signal (z-score) [14]: -0.25 | glycan array binding signal (z-score) [15]: -0.241 | glycan array binding signal (z-score) [16]: 3.24 | glycan array binding signal (z-score) [17]: -0.205 | glycan array binding signal (z-score) (Gal(b1-3)GlcNAc6S): -0.249 | glycan array binding signal (z-score) [18]: -0.242 | glycan array binding signal (z-score) [19]: -0.218 | glycan array binding signal (z-score) [20]: -0.213 | glycan array binding signal (z-score) [21]: -0.241 | glycan array binding signal (z-score) [22]: -0.248 | glycan array binding signal (z-score) [23]: 1.1 | glycan array binding signal (z-score) [24]: -0.229 | glycan array binding signal (z-score) [25]: -0.238 | glycan array binding signal (z-score) [26]: -0.259 | glycan array binding signal (z-score) [27]: -0.241 | glycan array binding signal (z-score) (Gal(b1-4)Gal): -0.264 | glycan array binding signal (z-score) [28]: -0.253 | glycan array binding signal (z-score) [29]: -0.239 | glycan array binding signal (z-score) (Gal(b1-4)Glc): -0.247 | glycan array binding signal (z-score) (Gal(b1-4)Glc6S): -0.243 | glycan array binding signal (z-score) (Gal(b1-4)GlcNAc): -0.243 | glycan array binding signal (z-score) [30]: -0.241 | glycan array binding signal (z-score) (Gal(b1-4)GlcNAc(b1-2)Man): -0.11 | glycan array binding signal (z-score) [31]: -0.25
